# Reference: paper PMC4336329 (PLoS ONE, 2015)
# The whole screen tested about 310,000 compounds, of which about 2,200 (0.71%) showed an effect of 50% or more. The effect is printed as a negative number. The list shows a part of the results.
# Target: human ether-à-go-go-related gene (hERG) potassium channel (human, UniProt Q12809)
# Test: primary screen, population patch clamp on CHO cells stably expressing hERG
# Chain of human ether-à-go-go-related gene (hERG) potassium channel (Q12809 whole entry, looked up): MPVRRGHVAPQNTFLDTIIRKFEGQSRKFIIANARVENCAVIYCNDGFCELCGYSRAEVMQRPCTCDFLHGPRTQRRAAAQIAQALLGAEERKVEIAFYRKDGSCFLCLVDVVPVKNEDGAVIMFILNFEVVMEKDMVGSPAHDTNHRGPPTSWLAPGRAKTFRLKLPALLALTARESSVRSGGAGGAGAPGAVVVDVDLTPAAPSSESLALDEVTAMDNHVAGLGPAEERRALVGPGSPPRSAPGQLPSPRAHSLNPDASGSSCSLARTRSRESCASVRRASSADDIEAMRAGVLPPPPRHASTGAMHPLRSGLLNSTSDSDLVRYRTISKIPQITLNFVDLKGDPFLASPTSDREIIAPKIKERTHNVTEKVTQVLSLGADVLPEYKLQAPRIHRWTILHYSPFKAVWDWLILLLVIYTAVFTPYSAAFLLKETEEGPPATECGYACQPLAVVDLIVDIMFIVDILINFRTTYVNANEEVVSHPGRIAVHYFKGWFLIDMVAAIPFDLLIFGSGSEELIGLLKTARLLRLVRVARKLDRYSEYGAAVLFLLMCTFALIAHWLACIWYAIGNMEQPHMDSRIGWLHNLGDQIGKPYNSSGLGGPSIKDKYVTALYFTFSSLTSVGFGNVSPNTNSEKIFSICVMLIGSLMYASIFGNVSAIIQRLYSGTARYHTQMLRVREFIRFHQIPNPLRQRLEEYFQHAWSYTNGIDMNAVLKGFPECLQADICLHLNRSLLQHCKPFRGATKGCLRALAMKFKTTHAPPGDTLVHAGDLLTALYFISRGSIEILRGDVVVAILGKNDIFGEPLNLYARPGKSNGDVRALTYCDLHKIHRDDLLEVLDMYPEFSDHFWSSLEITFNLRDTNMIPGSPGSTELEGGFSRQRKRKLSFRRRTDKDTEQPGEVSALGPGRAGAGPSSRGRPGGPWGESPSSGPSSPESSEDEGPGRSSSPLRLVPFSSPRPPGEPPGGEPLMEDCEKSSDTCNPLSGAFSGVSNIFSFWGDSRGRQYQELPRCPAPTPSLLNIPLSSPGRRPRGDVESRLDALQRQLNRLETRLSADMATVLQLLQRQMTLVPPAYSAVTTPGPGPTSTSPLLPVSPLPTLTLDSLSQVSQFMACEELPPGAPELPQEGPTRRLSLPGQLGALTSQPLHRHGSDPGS
row,SMILES,"hERG current change (%, negative = inhibition) at 1uM"
1,O=c1c2cc(NC(=S)NCc3ccccn3)ccc2nc2n1CCCCC2,10.4%
2,O=C(N/N=C/c1cc([N+](=O)[O-])ccc1O)c1ccncc1,8.43%
3,COc1ccccc1C1CN=NC12CCCc1ccccc1C2=O (centres unmarked),18.8%
4,CCOC(=O)C1=C(C)Nc2ncnn2C1c1ccccc1F (centres unmarked),4.29%
5,CN(CCc1nc2ccc(Cl)cc2[nH]1)Cc1nc(CC2CC2)no1,-21.4%
6,Fc1ccccc1Cc1ccc(Cl)nn1,4.8%
7,Cc1onc(-c2c(F)cccc2Cl)c1C(=O)c1ccc(F)cc1,11.8%
8,CCN1C(=O)[C@@H]2[C@@H](c3ccc(-c4ccc(Cl)c(Cl)c4)c(OC)c3)N3CCCC[C@@]3(C(=O)OC)[C@@H]2C1=O.O=C(O)C(F)(F)F,-0.751%
9,COc1ccc(NC(=O)CSc2nnc(Cc3cccn3C)n2-c2ccc(C)cc2)cc1OC,16.1%
10,CC1(C)CC(=O)C2=C(C1)Nc1ccccc1NC2c1cccnc1 (centres unmarked),7.57%
11,CCOc1cc(C(=O)OCC(=O)c2c[nH]c3ccccc23)ccc1OCC(=O)N1CCOCC1,4.47%
12,O=C(COc1ccc(Br)cc1)N1CCN(Cc2ccc3c(c2)OCO3)CC1,-7.91%
13,Cc1nnc(NCc2ccccc2)c2ccccc12,13.7%
14,O=C(Nc1ccccc1F)C(=O)Nc1cccc2ccccc12,8.69%
15,CN(C(=O)CSc1nnc(-c2ccco2)n1Cc1ccccc1)C1CCS(=O)(=O)C1 (centres unmarked),8.83%
16,O=C(CSc1n[nH]c(-c2ccco2)n1)Nc1ccccc1F,14.3%
17,CC(=O)Nc1ccc(C(=O)OCC(=O)NCc2cccs2)cc1,-0.761%
18,CCCCN(CC(=O)NCc1ccc(F)cc1)C(=O)c1ccco1,12.5%
19,COc1ccc(NC(=O)CN(C)S(=O)(=O)c2ccc(Cl)cc2)cc1Cl,2.38%
20,CC(=O)Nc1cccc(-c2cn3ccc(C)cc3n2)c1,5.38%
21,Cc1ccc(C(=O)c2c3ccccc3[n+]([O-])n2CCC(=O)O)cc1,17.9%
22,NNc1nc(NCc2ccccc2)nc(N2CCOCC2)n1,8.03%
23,C=CCn1c2ccccc2c2nn(C)c(=S)nc21,7.09%

row,SMILES,"hERG current change (%, negative = inhibition) at 1uM"
1,CCCCC(c1nnnn1C(C)C)N1CCN(C(=O)c2ccco2)CC1.Cl (centres unmarked),10.7%
2,CC(C)CNC(C)C(=O)Nc1ccc(S(N)(=O)=O)cc1 (centres unmarked),14.2%
3,COc1cccc(NC(=O)c2cnn(-c3ccccc3)c2C)c1,7.81%
4,COc1ccc(Cc2nnc(NC(=O)c3cccs3)s2)cc1,5.36%
5,Nc1c(C(=O)Nc2cccc(F)c2)nnn1-c1cccc(C(F)(F)F)c1,9.98%
6,COc1ccccc1N(CC(=O)Nc1ccc(Cc2ccncc2)cc1)S(=O)(=O)c1ccccc1,9.9%
7,O=C(Cn1nc(-c2ccccc2)c2ccccc2c1=O)NN1CCOCC1,11.3%
8,CC(=O)Nc1cccc(NC(=O)c2cc(-c3cccnc3)nc3ccc(Br)cc23)c1,-5.83%
9,CCOc1ccccc1NC(=O)c1sc2nc(C)nc(N3CCOCC3)c2c1C,9.49%
10,COC(=O)NC1CCC(NC(=O)OC)CC1 (centres unmarked),8.6%
11,CC(NC(=S)NNS(=O)(=O)c1cccc([N+](=O)[O-])c1)c1ccccc1 (centres unmarked),12.9%
12,O=C(c1ccc(F)cc1)N1CCCC(c2ccccc2)C1 (centres unmarked),9.25%
13,CC(=O)Nc1ccc2sccc2c1,4.3%
14,O=C(CN1CCc2ccccc2C1)Nc1ccc(OC(F)(F)F)cc1,12.1%
15,CC(C)NC(=O)NC(=O)COc1c(F)c(F)cc(F)c1F,8.47%
16,CCOc1ccc(C(=O)NCC(=O)NC(C)c2ccc(-n3ccnc3)cc2)cc1OCC (centres unmarked),-31.3%
17,Cc1nc2oc3ccc(Cl)cc3c(=O)c2cc1C(=O)O,17.1%
18,CCN1CCN(C(=O)CSc2ccc(C)cc2)CC1,13.3%
19,CCCN1CCc2[nH]c(=S)[nH]c(=O)c2C1,8.45%
20,CC1CCCN(S(=O)(=O)c2ccc(NC(=O)C3CC(=O)N(c4ccccc4)C3)cc2)C1 (centres unmarked),10.7%
21,COCCn1ccc2c(OCC(=O)NCc3ccccc3)cccc2c1=O,-6.65%
22,CCOCC(=O)NCc1ccc2c(c1)cc(C)n2C,5.1%
23,Cc1ccccc1-n1ncc(C(C)NS(=O)(=O)c2sccc2C)c1C (centres unmarked),13.6%

row,SMILES,"hERG current change (%, negative = inhibition) at 1uM"
1,CC(C)CN(C(=O)COC(=O)CNC(=O)c1ccccc1F)C1CCS(=O)(=O)C1 (centres unmarked),12.3%
2,CC1CCC(N2CCNCC2)CC1.Cl (centres unmarked),10.8%
3,Cc1nc(C(F)(F)F)c(C(=O)NC(=O)Nc2ccccc2)s1,11.6%
4,C=CCOc1ccc(C2/C(=C(\O)c3c(C)[nH]c(C(=O)OC)c3C)C(=O)C(=O)N2CCN(C)C)cc1 (centres unmarked),15.3%
5,Cc1ccc(N2CC(C(=O)Nc3ccc(S(=O)(=O)N4CCOCC4)cc3)CC2=O)cc1 (centres unmarked),2.69%
6,O=C(O)CC(NC(=O)c1ccc2c(c1)OCO2)c1cccc([N+](=O)[O-])c1 (centres unmarked),17.3%
7,Cc1ccc2c(C)c(C(=O)N3CCC(N4CCC(C(=O)NC5CC5)CC4)CC3)oc2c1,-14.1%
8,CN(Cc1ccccn1)Cc1nc(COc2ccccc2)no1,5.17%
9,CCOCC(=O)Nc1cc(C(=O)NCCc2ccccc2)ccc1Cl,2.6%
10,CCOC(=O)c1nn(-c2ccccc2F)c(-c2ccccc2)c1C(=O)c1ccccc1,10.2%
11,Cc1nnc(NC(=O)CC(CN(C)S(=O)(=O)c2ccccc2)c2ccccc2)s1 (centres unmarked),-4.03%
12,COC(=O)CN(c1cc(OC)ccc1OC)S(=O)(=O)c1ccc(OC)c(OC)c1,8.76%
13,Cn1ccnc1C1CCCCN1C(=O)c1cc(COc2ccc(F)cc2F)on1 (centres unmarked),-2.87%
14,O=C(CCNC(=O)N1C[C@H]2C[C@@H](C1)c1cccc(=O)n1C2)Nc1cccc(Cl)c1,11.2%
15,CS(=O)(=O)NCCC1=CCCCC1,12.6%
16,O=C(CNC(=O)c1cccc(-n2cnnn2)c1)Nc1ccc(F)c(F)c1,-0.0982%
17,Cc1cc(N2C(=O)C(O)=C(C(=O)c3cccs3)C2c2ccc(F)cc2)no1 (centres unmarked),14.8%
18,CN(C)c1ccc(S(=O)(=O)NCC(=O)N2CCN(c3ccccc3)CC2)cc1[N+](=O)[O-],10.5%
19,Cc1ccc(N2CCN(CC(O)COc3ccccc3)CC2)cc1 (centres unmarked),-24.2%
20,O=c1c(C(c2c(O)nc3n(c2=O)CCS3)c2cccc3ccccc23)c(O)nc2n1CCS2,0.976%
21,O=C(CSc1ccc(-c2ccncc2)nn1)N1CCN(c2ccccc2)CC1,4.87%
22,O=C(c1cc(Br)ccc1Cl)N1CCN(c2ccccn2)CC1,13%
23,CS/C(=N\S(=O)(=O)c1cccs1)Nc1ccc(F)c(Cl)c1,9.97%

row,SMILES,"hERG current change (%, negative = inhibition) at 1uM"
1,CCc1cc(C(=O)Nc2nnc(C3CC3)s2)sc1C,13.3%
2,Cc1c(C)c2cc(Cl)c(OCc3nn[nH]n3)cc2oc1=O,8.06%
3,Cc1ccc(CNC(=O)/C=C/c2ccccc2Cl)cc1,13.8%
4,Cc1cccc(NC(=O)c2cccc(S(=O)(=O)N3CCCCC3)c2)c1,6.91%
5,COCc1c(C(=O)NC(C)c2ccc(S(N)(=O)=O)cc2)oc2ccccc12 (centres unmarked),15.2%
6,CCOC(=O)c1c(NC(=O)COc2cccc3c2CCN(C)C3=O)sc2c1CCC2,5.17%
7,CC1CCC(NC(=O)CCCCn2c(=O)[nH]c3ccsc3c2=O)CC1 (centres unmarked),19.8%
8,COc1ccccc1NC(=O)NCCc1c[nH]c2ccccc12,11.3%
9,c1ccc(Sc2ncnc3c2oc2ccccc23)nc1,8.05%
10,C/C(=N\NC(=O)c1ccc2ccccc2c1)c1cccnc1,15.8%
11,COc1cccc(NC(=O)CSc2nc3c(oc4ccccc43)c(=O)[nH]2)c1,6.26%
12,COc1cccc(NC(=O)CSc2nnc(-c3ccco3)c(-c3ccco3)n2)c1,3.02%
13,Cc1ccc(Nc2nnc(-c3ccc4c(c3)OCO4)o2)c(C)c1,16.4%
14,O=C(NCc1ccccc1)c1ccc(F)c(S(=O)(=O)N2CCOCC2)c1,-0.874%
15,C=CCOc1ccc2ccccc2c1CNc1ncn[nH]1,-11.2%
16,Cc1occc1-c1nnc(SCC(=O)Nc2nc(-c3ccccc3)cs2)o1,-0.756%
17,O=C(O)c1c[nH]c2ccc(S(=O)(=O)N3CCOCC3)cc12,10.8%
18,Cc1ccc(C(=O)N2NC(c3ccc(F)cc3)C3C(=O)N(c4ccc(C)cc4)C(=O)C32)cc1 (centres unmarked),6.46%
19,Cc1ccc(SCCC(=O)NC(C)C)cc1,20.3%
20,O=C(COc1ccc(C(=O)NCC2CCCO2)cc1)Nc1cccc(C(F)(F)F)c1 (centres unmarked),7.2%
